In paper PMC12136788:
This is one part of the list.

B1: chr12:909583:909684:+|3pUTR|ENSG00000060237|unk|FALSE|bound_elsewhere (ssRNA)
RNA: GGGAGUUCUACAGUCCGACGAUCUAGCUCUGUCCUUUACUUAUUGAGACACUUUAACUUUUUCCUUUGUAUUUCCAUUGUAUUAGAUAAAUAAAUGUGAAUGUAAAAUUGUAUAAAUUACUGUACUUGAAUACUUCUGUUUCCCAACAGAGGAUUGAGCAUCA
B2: chr12:29502561:29502662:-|3pUTR|ENSG00000133687|msi1|total|mutant (ssRNA)
RNA: GGGAGUUCUACAGUCCGACGAUCUCUUAACAAUGAUGUAUGGCACAAUUGGUUGGUUGAGGCUAUCAUUCCAUGAUUACAAACCGGUGGUUAUGUGGGGUGGUUUUGCACUUGUGGCAAUUGGACUGCAAUUUGGCCUUAAAACAACAGAGGAUUGAGCAUCA
B3: chr13:25097967:25098071:+|CDS|ENSG00000151846|unk|total|mutant (ssRNA)
RNA: GGGAGUUCUACAGUCCGACGAUCAGAACUUCUUUAUAUGCUCGAGUCUCCAGAGUCACUCCGUUCUAAGGUUGAUGAAGCUGCCGCUGUACUACAAGCCCACCAAGCUAAAGAGGCUACCCAGAAAGCAGUUAACAGUGCUACCAACAGAGGAUUGAGCAUCA
B4: chr17:3714672:3714773:-|3pUTR|ENSG00000083457|msi1_unk|total|mutant (ssRNA)
RNA: GGGAGUUCUACAGUCCGACGAUCUUUGCAUUACUUUUUCCUUCAGGAUGAUCCCGAGCAGCAUGGAGCUGUUGGCCGAAUAUCCGUUUUUAACCAUACAUUGUCCCAAAAGUGUCUGUGCAUUGUGCAAAAAGUAAACUCCGGCAACAGAGGAUUGAGCAUCA
B5: chr8:38142699:38144272:-|three_prime_utr|ENSG00000147465|control|control|control (ssRNA)
RNA: GGGAGUUCUACAGUCCGACGAUCGGAAGCCUGCAAGUCUAAGAUCUCCAUCUGGUGACAGUGGGAUGGGUGGGGUUCGUGUUUAGAGUAUGACACUAGGAUUCAGAUUGGUGAAAGUUUUUAGUACCAAGAAAACAGGGAUGACAACAGAGGAUUGAGCAUCA
B6: chr12:62383855:62383964:+|CDS|ENSG00000135655|unk|total|mutant (ssRNA)
RNA: GGGAGUUCUACAGUCCGACGAUCGGCCGGACGUUUUGCACCUCAGUUCUCUGGAUAUCAGCAGCAAGACUGUCAAGAACUGUCCGCUUUCCUAUCCGAUGGAUUACAUGAGGAUUUGAACCGAAUCCGGAAAAAACCAUAUAUCAACAGAGGAUUGAGCAUCA
B7: chr11:112063736:112063838:+|3pUTR|ENSG00000150768|unk|total|mutant (ssRNA)
RNA: GGGAGUUCUACAGUCCGACGAUCGAGAGAAAAAAUUAACCCGGUUGCUACUUUAUUUGCCUAAAUACUUUUUUCUAUUUUGUCCGAUUUUGCCUUUCUUUUGGAAGGAAGGAGGCGAUAUUCUGGAUUAUAAAAAUGAAUUGGCAACAGAGGAUUGAGCAUCA
B8: chr7:139028693:139028797:-|CDS|ENSG00000146858|unk|total|mutant (ssRNA)
RNA: GGGAGUUCUACAGUCCGACGAUCUUUCAGAUAAUCUCCACCUACAAGCAUAUGAAGCUGCACAAGAUGCUUGAAAAUACAGGCCGGAAUAUCCAAGAAGGACAGAGAAGUAUCAGCGAUAUGGUUUUGCGAUGCUUCACUGUGCAACAGAGGAUUGAGCAUCA
B9: chr5:75360489:75360590:+|3pUTR|ENSG00000113161|msi1|total|mutant (ssRNA)
RNA: GGGAGUUCUACAGUCCGACGAUCGCUCUUUCAGAGAGGUCUCAGGUUCUUUCCAUGCAGACUCCUCAGAUCUGAACACAGUUCCGUGCUUUACAUGCUGUGCUCUUUGAAGAGAUUUCAACAAGAAUAUUGUAUGUUAAAGCACAACAGAGGAUUGAGCAUCA
B10: chr11:61866962:61867357:+|3pUTR|ENSG00000134824|msi1|total|mutant (ssRNA)
RNA: GGGAGUUCUACAGUCCGACGAUCAGAUUCAGGGGAAGGGCAGGCACCAACAACUCAGAAUGGGGGCUUUCGGGGAGGGCGCCCCGUCCCCCCAGCUCUAAGCAGCCAGGAGGGACCUGCAUCUAAGCAUCUGGGUUGCCAUGGCAACAGAGGAUUGAGCAUCA
B11: chr15:74179522:74179623:-|3pUTR|ENSG00000137868|msi1|total|mutant (ssRNA)
RNA: GGGAGUUCUACAGUCCGACGAUCUCAUGACUCAGACCAGGUCCCACACUGAGCUGCCCACACUCGAGAGCCAGAUAUUUUUGCCGUUUUUAUGCCUUUGGCUAUUAUGAAAGAGGUCCGUGUGUUCCCUGCAAUAAACUUGUUCAACAGAGGAUUGAGCAUCA
B12: ENSG00000070961:be:win_5801|3pUTR|ENSG00000070961|bound_else_gene|NA|bound_elsewhere_windowed (ssRNA)
RNA: GGGAGUUCUACAGUCCGACGAUCGAAAAGGGAAAUGUUUUCAGUUUUCUUUUUUAUUUUGGUUAUGCUUAAAUAUGAAUGUAAUUACCAAAAGAUUUAGAAGUGCAUGUGCUUUGGAGGAUUUGUAUUGAGCUUUUACAGUAUCAACAGAGGAUUGAGCAUCA
B13: chr9:14719723:14720089:-|three_prime_utr|ENSG00000147869|control|control|control (ssRNA)
RNA: GGGAGUUCUACAGUCCGACGAUCUUCAGUCUGAAAAUGUUAAGUGGGUACAUAACAUUUUCAGGGAAAGGUGACUUGAAACGUAGUUUUAAAUUAGAACGAUAGAGGAAAUGAUAUUAGUCUAGUUAUUGGUACACGUUUGAGCAACAGAGGAUUGAGCAUCA
B14: chr12:76025442:76025543:-|3pUTR|ENSG00000139289|msi1|total|mutant (ssRNA)
RNA: GGGAGUUCUACAGUCCGACGAUCAUACACCAUCACAUUCAUGAAUUUUUCCGCAUGGUCAGAACUUGUGUAAAUAUGUCUCUCCGAUGAUUUUGGGGAGAUGUGAUUUAUUUUUCAUAUUUUCAAAAUGCAUUUCAUUUCAAACAACAGAGGAUUGAGCAUCA
B15: ENSG00000198589:be:win_101|CDS|ENSG00000198589|bound_else_gene|NA|bound_elsewhere_windowed (ssRNA)
RNA: GGGAGUUCUACAGUCCGACGAUCCUCUGAAACCAGGGCUCCCCAUCAGGGGCAUCAGAAUGAAAUUUGCCGUGUUGACCGGUUUGGUUGAAGUUGGAGAAGUAUCCAAUAGGGAUAUUGUAGAAACUGUCUUUAACCUGUUGGCAACAGAGGAUUGAGCAUCA
B16: chr17:29498396:29498497:+|CDS|ENSG00000160551|msi1|FALSE|bound_elsewhere (ssRNA)
RNA: GGGAGUUCUACAGUCCGACGAUCCAGCAGCCAAAGCAGUAGUGUUAACAGUCUUCCAGAUGUCUCAGAUGACAAGAGUGAGCUAGACAUGAUGGAGGGAGACCACACAGUGAUGUCUAACAGUUCUGUUAUCCAUUUAAAACCCAACAGAGGAUUGAGCAUCA
B17: chr17:49055506:49055607:+|3pUTR|ENSG00000159217|unk|total|mutant (ssRNA)
RNA: GGGAGUUCUACAGUCCGACGAUCCACUUCCCGGCUGUGGGGGCUGGGGAGCCACUUGUAACAUUUCUGUGCAGAUUUUAUGUCCGCCACUGCUAUGUAAAAGCACGUUCAAAAUGAAUUUCAGCAGAUUAUGUGUUACCAUAACAACAGAGGAUUGAGCAUCA
B18: ENSG00000136451:be:win_3901|3pUTR|ENSG00000136451|bound_else_gene|NA|bound_elsewhere_windowed (ssRNA)
RNA: GGGAGUUCUACAGUCCGACGAUCAUAAACAGGAGUGAGACUUCAUUGUAUGACUUCAGUUAAAAUACUAUUUUGUAUGCAUUCUUUAUUCACUUAAGAAGCUUGUCUGCAAUAAUAAAGCCACGUCAUGUCUUCUUUUGGGAGCAACAGAGGAUUGAGCAUCA
B19: chr3:185511523:185511697:-|CDS|ENSG00000163898|control|control|control (ssRNA)
RNA: GGGAGUUCUACAGUCCGACGAUCUAAUCAAGAUCUGGAUAAAGUGGCUGCAAUUUCCUUGAUGUUCUCUACAGGAUCUCUAAUAGGCCCAAGGUACAAGCUCAGGAUUCUCCGAAUGAAGUUAAGGUCCCUUGCCCAUCCGGACAACAGAGGAUUGAGCAUCA
B20: chr8:108778973:108784180:-|three_prime_utr|ENSG00000164841|control|control|control (ssRNA)
RNA: GGGAGUUCUACAGUCCGACGAUCAAGUUUAUUUCACAAACCAACAGCCAGUAAGUGUUUUUGUUCUCUAUGUGUCUUCUAUUUAGAAGAAAAGCCAUGUAAGAUGUAUAAGAAACCACAACCAGCCACACCUAUCCUUCUGAACAACAGAGGAUUGAGCAUCA
B21: chr2:160273923:160274028:-|3pUTR|ENSG00000153250|unk|total|mutant (ssRNA)
RNA: GGGAGUUCUACAGUCCGACGAUCGGGCUUUUAAAAGGCCGUCAAUAAAAGUUGCUGAAAUUUUGGCUUUUUUAAAUAUGCCGCCGGUGUUUUUAAUGAUUUUUCACAUAAUGUGUAAGGCCGUGAAAUGCAAGAAGGGAAAAACAACAGAGGAUUGAGCAUCA
B22: chr3:43366700:43366801:-|3pUTR|ENSG00000160746|unk|total|mutant (ssRNA)
RNA: GGGAGUUCUACAGUCCGACGAUCACGGUGGCAGGGGGGGUACCCGGGGCAGCAUCGUGGCUCCUGAACCCAGACCCAAUGCUCCGCCAAACGAAGUGGCUCCCAUGUGGCAAGCACCCUUCUCAGUUUCGCAGUGGCUUGGCUCAACAGAGGAUUGAGCAUCA

target: MSI1 full-length (mouse, UniProt Q61474 1-362); assay: nsRBNS (natural sequence RNA bind-n-seq); RBNS binding buffer (assumed for nsRBNS): 25 mM Tris pH 7.5, 150 mM KCl, 3 mM MgCl2, 0.01% Triton X-100, 500 ug/ml BSA, 20 U/ml SUPERase-In, 4 C; UNK is unkempt and MSI1 is Musashi-1; names of the RNAs are library labels; protein concentration not given here; high values mean tight binding
Chain of UniProt Q61474 (Q61474 whole entry): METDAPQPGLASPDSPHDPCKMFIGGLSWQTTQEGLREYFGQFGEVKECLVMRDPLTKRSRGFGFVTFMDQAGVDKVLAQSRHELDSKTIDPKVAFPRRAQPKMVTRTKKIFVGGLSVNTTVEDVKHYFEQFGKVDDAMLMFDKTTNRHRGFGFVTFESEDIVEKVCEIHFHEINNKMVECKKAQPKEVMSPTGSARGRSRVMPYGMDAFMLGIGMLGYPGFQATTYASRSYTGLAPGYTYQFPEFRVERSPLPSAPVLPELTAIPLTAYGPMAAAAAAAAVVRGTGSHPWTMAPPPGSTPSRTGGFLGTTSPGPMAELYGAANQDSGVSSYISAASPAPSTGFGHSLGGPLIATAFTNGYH

First: B1
Second: B2
The binding signal of the first is higher: 13.1 enrichment R for the first, 0.31 enrichment R for the second.

Compared with B3, B4 is lower in binding signal: 0.468 enrichment R for the first, 0.264 enrichment R for the second.

Compared with B5, B6 is lower in binding signal: 1.43 enrichment R for the first, 0.357 enrichment R for the second.

Going from B7 to B8, the binding signal falls from 0.378 enrichment R to 0.231 enrichment R.

Going from B9 to B10, the binding signal rises from 0.132 enrichment R to 0.416 enrichment R.

Going from B11 to B12, the binding signal rises from 0.389 enrichment R to 1.05 enrichment R.

Compared with B13, B14 is lower in binding signal: 2.87 enrichment R for the first, 0.318 enrichment R for the second.

First: B15
Second: B16
The binding signal of the first is higher: 3.23 enrichment R for the first, 0.671 enrichment R for the second.

Compared with B17, B18 is lower in binding signal: 0.336 enrichment R for the first, 0.334 enrichment R for the second.

Compared with B19, B20 is higher in binding signal: 0.225 enrichment R for the first, 1.27 enrichment R for the second.

First: B21
Second: B22
The binding signal of the first is lower: 0.329 enrichment R for the first, 0.466 enrichment R for the second.
